According to a compilation of properties of binary mixtures (doi:10.1016/j.jct.2015.02.025):
Some of these densities may be calculated back from excess volumes.

Test: xn = mol fraction of the nth substance listed
Conditions: 298.15 K, 100 kPa

Compound: CCCCCC[n+]1ccccc1.N#C[N-]C#N + O
- mass density (x2 = 0.0406): 1036.2 kg/m3
- mass density (x2 = 0.0581): 1036.1 kg/m3
- mass density (x2 = 0.075): 1036 kg/m3
- mass density (x2 = 0.0913): 1035.9 kg/m3

Compound: CCCCC[n+]1ccccc1.N#C[N-]C#N + O
- mass density (x2 = 0.0142): 1053 kg/m3
- mass density (x2 = 0.0315): 1052.9 kg/m3
- mass density (x2 = 0.0482): 1052.8 kg/m3
- mass density (x2 = 0.0644): 1052.6 kg/m3
- mass density (x2 = 0.0791): 1052.5 kg/m3

Compound: CCCC[n+]1ccccc1.N#C[N-]C#N + O
- mass density (x2 = 0.0133): 1068.7 kg/m3
- mass density (x2 = 0.0295): 1068.6 kg/m3
- mass density (x2 = 0.0452): 1068.4 kg/m3
- mass density (x2 = 0.0605): 1068.3 kg/m3
- mass density (x2 = 0.0743): 1068.1 kg/m3

Compound: CCC[n+]1ccccc1.N#C[N-]C#N + O
- mass density (x2 = 0.0124): 1089.8 kg/m3
- mass density (x2 = 0.0275): 1089.6 kg/m3
- mass density (x2 = 0.0412): 1089.4 kg/m3
- mass density (x2 = 0.0565): 1089 kg/m3

Compound: CC[n+]1ccccc1.N#C[N-]C#N + O
- mass density (x2 = 0.0209): 1118.1 kg/m3
- mass density (x2 = 0.0516): 1117.6 kg/m3
- mass density (x2 = 0.0672): 1117.4 kg/m3
- mass density (x2 = 0.0807): 1117.1 kg/m3
